In the assay the test system is SR leukemia. Description: NCI tumour cell line growth inhibition, 48 h.

Results on 1 molecule are retold here after PubChem BioAssay (NCI).

Structures are written as SMILES.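 Growth conditions: 96-well plates. Treatment: test compound, 48 hours, 5 concentrations. Analysis: linear interpolation between bracketing concentrations; unreached endpoints set to highest concentration. TGI: total growth inhibition.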 Certain results were filed several times, with different values. The other results are left out here. The source may hold further records. Records of one sample usually come from different ranges of test concentrations, not given here; some values may only mark the edge of a range.

As for `O=C(/C=C\c1ccc(Cl)c(Cl)c1)c1ccc(Cl)cc1Cl`, the TGI is 7.45 µM and > 100 µM.
